In paper PMC11444770, “Moesin contributes to heat shock gene response through direct binding to the Med15 subunit of the Mediator complex in the nucleus” (Open Biology, 2024):
No constants are given. Whether binding was seen depends on the method and setting. For some assays here: In cells and extracts the contact can be indirect. Some entries that bind do so weakly or less than the wild type. For some assays here: Where a sequence is shown, tags or fusion partners need not be part of it. Each block holds one molecule with its values, some of them ahead of it.

Amino acid sequences for entries named in this document (tags omitted).
UniProt Q96RN5: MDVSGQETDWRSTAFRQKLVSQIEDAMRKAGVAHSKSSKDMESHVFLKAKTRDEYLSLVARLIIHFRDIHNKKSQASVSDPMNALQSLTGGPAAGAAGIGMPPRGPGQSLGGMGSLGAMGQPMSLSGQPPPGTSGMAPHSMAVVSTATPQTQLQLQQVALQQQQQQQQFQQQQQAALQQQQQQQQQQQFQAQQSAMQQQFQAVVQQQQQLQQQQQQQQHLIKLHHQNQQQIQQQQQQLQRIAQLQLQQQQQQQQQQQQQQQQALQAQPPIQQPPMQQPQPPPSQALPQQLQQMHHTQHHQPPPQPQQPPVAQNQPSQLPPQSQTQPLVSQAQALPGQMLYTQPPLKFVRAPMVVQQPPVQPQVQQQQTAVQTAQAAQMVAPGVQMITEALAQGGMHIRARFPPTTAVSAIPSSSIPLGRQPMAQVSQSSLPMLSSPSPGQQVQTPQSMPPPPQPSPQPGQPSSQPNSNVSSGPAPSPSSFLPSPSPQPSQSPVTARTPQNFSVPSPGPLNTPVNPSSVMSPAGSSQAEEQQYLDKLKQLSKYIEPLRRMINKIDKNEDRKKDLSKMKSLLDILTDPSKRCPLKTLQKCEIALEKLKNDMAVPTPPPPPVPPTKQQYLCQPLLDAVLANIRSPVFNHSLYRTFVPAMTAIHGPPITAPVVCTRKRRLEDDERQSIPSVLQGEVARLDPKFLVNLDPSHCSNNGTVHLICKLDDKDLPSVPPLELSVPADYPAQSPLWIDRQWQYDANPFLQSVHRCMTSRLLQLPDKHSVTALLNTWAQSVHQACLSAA
UniProt P46150: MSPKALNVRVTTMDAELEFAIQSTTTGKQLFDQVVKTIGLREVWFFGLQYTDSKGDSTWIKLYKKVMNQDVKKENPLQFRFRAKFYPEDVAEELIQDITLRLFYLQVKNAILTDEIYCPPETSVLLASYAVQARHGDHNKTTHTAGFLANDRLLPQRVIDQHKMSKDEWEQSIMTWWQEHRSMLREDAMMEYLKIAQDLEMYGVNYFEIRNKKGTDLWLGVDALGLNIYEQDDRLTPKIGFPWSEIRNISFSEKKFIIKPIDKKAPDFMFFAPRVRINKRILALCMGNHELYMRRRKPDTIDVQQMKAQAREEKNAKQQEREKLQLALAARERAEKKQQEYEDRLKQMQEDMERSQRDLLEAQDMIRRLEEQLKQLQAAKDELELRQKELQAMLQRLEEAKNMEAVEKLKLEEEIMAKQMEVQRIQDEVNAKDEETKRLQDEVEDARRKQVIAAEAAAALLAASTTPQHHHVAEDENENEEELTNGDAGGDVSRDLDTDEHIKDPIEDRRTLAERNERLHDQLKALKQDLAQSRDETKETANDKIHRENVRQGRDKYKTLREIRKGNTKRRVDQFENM
UniProt P15311: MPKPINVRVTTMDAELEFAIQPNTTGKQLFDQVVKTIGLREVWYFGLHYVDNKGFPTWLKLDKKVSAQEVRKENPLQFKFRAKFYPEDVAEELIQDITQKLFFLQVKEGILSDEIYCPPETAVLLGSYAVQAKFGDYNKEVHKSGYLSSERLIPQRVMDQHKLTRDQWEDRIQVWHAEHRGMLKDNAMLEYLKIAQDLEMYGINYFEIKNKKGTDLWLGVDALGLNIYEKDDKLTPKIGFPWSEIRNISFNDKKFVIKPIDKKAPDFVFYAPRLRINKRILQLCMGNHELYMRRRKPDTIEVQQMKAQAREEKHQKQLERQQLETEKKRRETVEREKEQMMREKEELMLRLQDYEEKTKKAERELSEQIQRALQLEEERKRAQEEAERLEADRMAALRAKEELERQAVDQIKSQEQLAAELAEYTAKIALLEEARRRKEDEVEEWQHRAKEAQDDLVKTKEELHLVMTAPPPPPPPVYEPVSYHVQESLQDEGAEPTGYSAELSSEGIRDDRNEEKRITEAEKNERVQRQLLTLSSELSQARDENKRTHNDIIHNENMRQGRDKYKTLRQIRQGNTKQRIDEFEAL
UniProt P26038: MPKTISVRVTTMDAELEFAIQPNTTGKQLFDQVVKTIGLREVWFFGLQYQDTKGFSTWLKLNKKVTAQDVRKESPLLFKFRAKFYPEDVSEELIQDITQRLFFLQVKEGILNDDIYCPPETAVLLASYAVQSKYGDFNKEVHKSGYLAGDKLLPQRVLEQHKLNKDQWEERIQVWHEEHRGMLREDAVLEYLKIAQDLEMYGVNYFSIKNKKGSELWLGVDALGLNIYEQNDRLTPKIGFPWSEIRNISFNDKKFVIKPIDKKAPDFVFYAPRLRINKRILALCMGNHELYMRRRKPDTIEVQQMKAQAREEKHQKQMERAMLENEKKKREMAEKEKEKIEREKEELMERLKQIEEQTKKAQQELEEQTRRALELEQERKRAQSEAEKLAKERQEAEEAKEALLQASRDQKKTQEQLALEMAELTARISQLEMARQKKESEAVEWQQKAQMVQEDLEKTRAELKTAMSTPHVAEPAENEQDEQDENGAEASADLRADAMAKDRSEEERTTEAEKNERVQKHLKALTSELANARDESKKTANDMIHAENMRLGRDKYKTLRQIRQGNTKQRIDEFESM

Assays:
[1] = molecular target: hMed15-V2 (human) (UniProt Q96RN5); assay: split reporter; split Venus (V1/V2) in U2OS cells, fixed 48 h after transfection; confocal and high-throughput microscopy
[2] = molecular target: T1, Med15-FLAG (Drosophila melanogaster) (UniProt Q9Y149); assay: native gel or EMSA; two-dimensional BN-PAGE (native 4-10% gradient gel at 4°C, then SDS-PAGE) of the nuclear fraction of S2R+ cells co-expressing Med15-FLAG and Med7-FLAG; western blot with anti-FLAG and anti-Moe
T1 sequence: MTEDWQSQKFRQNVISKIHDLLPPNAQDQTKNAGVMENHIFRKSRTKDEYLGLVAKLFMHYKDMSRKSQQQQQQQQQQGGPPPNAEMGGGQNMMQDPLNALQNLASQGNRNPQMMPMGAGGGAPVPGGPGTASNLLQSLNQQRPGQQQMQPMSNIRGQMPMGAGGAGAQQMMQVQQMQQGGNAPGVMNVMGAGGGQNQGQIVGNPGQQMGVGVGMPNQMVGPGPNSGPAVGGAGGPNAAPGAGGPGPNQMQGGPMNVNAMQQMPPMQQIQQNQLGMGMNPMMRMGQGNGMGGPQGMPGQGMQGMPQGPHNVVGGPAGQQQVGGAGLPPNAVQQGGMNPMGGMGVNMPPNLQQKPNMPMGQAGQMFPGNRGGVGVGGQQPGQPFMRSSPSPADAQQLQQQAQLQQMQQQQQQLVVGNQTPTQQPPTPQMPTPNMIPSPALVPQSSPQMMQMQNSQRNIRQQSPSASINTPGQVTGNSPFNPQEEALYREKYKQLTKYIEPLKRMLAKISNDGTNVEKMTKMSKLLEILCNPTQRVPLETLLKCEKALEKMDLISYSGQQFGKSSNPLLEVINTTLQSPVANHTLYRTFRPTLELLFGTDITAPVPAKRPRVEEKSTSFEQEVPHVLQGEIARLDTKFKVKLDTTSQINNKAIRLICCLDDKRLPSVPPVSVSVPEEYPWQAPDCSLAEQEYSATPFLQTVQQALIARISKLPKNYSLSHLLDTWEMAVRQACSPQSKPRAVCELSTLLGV

[3] = molecular target: T2, Med7-FLAG (Drosophila melanogaster) (UniProt Q9GYV9); assay: as above
T2 sequence: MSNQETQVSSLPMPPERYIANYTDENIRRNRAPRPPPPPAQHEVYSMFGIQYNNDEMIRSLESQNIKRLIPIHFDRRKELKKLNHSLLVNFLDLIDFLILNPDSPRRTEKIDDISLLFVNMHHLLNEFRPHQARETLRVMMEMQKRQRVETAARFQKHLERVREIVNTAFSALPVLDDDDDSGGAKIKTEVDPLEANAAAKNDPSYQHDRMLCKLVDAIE

[4] = molecular target: Moesin-NYFP (Drosophila melanogaster) (UniProt P46150); assay: split reporter; split YFP (BiFC) in living, unstressed S2R+ cells, 2 days after transfection; confocal microscopy, percent of YFP positive cells
[5] = molecular target: Moesin-GFP (Drosophila melanogaster) (UniProt P46150); assay: co-IP; lysate of S2R+ cells co-expressing Moesin-GFP and Med15-FLAG or Med6-FLAG; anti-GFP antibody, Protein G magnetic beads; Lysis Buffer 20 mM Tris pH 7.5, 200 mM NaCl, 10% glycerol, 0.5 mM EDTA, 0.5% NP-40; 4°C; western blot
[6] = molecular target: Moe-NYFP (transgenic flies) (Drosophila melanogaster) (UniProt P46150); assay: split reporter; split YFP in larval salivary glands (Sgs3 Gal4 driver) or adult ovaries of transgenic Drosophila; live imaging
[7] = molecular target: T3, Hsf-NYFP (Drosophila melanogaster) (UniProt P22813); assay: split reporter; split YFP (BiFC) in living, unstressed S2R+ cells, 2 days after transfection; confocal microscopy, percent of YFP positive cells
T3 sequence: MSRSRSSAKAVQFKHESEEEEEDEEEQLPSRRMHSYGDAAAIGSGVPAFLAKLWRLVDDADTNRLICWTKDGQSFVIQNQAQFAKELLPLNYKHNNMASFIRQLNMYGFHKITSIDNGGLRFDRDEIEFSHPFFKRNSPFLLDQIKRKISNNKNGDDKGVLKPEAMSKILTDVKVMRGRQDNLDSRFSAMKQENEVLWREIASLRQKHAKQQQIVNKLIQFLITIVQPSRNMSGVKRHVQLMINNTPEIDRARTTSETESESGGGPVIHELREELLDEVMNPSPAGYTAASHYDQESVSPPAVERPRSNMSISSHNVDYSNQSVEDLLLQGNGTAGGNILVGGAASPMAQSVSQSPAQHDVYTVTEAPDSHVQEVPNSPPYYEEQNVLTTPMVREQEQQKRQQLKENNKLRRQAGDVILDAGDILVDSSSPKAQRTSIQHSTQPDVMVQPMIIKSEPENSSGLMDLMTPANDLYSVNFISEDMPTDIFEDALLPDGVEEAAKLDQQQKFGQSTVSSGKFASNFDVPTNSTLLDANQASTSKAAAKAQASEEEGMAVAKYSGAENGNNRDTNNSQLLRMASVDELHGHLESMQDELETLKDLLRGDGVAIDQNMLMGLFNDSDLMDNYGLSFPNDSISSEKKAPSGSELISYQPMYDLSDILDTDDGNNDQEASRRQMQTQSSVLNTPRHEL

binding [1]: binds
Molecule: hEzrin-V1 (from UniProt P15311 1-586)

binding [1]: binds
Molecule: hMoesin-V1 (from UniProt P26038 1-577)

binding [2]: binds | binding [3]: binds
Molecule: endogenous Moesin (from UniProt P46150 1-578)

binding [4]: no binding
B1: Med19 (split YFP control, CYFP-tagged) (protein, UniProt Q9VVL6 1-337)
chain: MMSNYGNMMDSPKSSPHGGGRSPVVARQDSSGTLKTTISLGKTPTIIHTGPFYSMKEPPAKAELTGDKDLMTEYGLHHTLTKFKEKKFKESLASFLQNIPGINDLITHPVENSTLRSVIEKPPIGGKELLPLTPVQLAGFRLHPGPLPEQYRTTYVTPARKHKNKHKKQKHKDGVTTGQESTLLDSAGLETYEKKHKKQKRHEDDKERKKRKKEKKRKKKNQSPEPGVGLLPGGASLGGAAGVMGATSLGSLGGGPGGPGLSSLSASMGPGVVGNMNSFSSSMQMQQQQQMPMQQQQMSSGGLLGSVLGTSGGPGGGGGGGGGGGGGVGGSLLMSQF

binding [5]: binds
B2: Med6-FLAG (protein, UniProt Q8MSX2 1-249)
chain: MASRQMTNDHLRLSWHDTQMMATLSPQTVMDYFCRKSNPFYDHMCNNETVRMQRLGPEHLHNMIGLEYILLHVAEPILYVIRKQHRHNPSEATPIADYYIIGGTVYKAPDLANVINSRILNTVVNLQSAFEEASSYARYHPNKGYTWDFSSNKVFSDRSKSDKKDANSAKDENSGTLFQKQRVDMLLAELLRKFPPPIPPMLQNLQQPPPAGDDLNTARNASEMNNATGPLDIKTEGVDMKPPPEKKSK

binding [4]: binds
B3: 6xHis-Hsf (natural protein, Drosophila melanogaster, UniProt P22813 1-691, looked up)
chain: T3 sequence
notes: heat shock factor (Hsf), the Drosophila Hsf1 homologue; The methods say C-terminal 6xHis tagging in pDEST17, while the label 6xHis-Hsf puts the tag first; as far as I recall pDEST17 adds an N-terminal His tag; also called heat shock factor; source: E. coli, purified (HisPur Cobalt Resin or Ni-NTA beads); not shown: 6xHis, C-terminal, kept

binding [5]: binds
B4: Med15-FLAG (protein, UniProt Q9Y149 1-749)
chain: T1 sequence

binding [6]: binds
B5: Med15-CYFP (transgenic flies) (protein, UniProt Q9Y149 1-749)
chain: T1 sequence

binding [7]: binds | binding [4]: binds
B6: Med15-CYFP (protein, UniProt Q9Y149 1-749)
chain: T1 sequence
